B1: Construct BBB: SEQ ID NO 847: h IL2(C125S)-2x(SG4)-MMPscr-2x(G4S)-hIL2Ra(M25I)-GSGGGG-hu IgG1 Fc (LALA) (protein)
chain: [no letters for about 150 residues]SGGGGSGGGGGVRLGPGGGGGSGGGGSELCDDDPPEIPHATFKAMAYKEGTILNCECKRGFRRIKSGSLYMLCTGNSSHSSWDNQCQCTSSATRNTTKQVTPQPEEQKERKTTEMQSPMQPVDQASLPGHCREPPPWENEATERIYHFVVGQMVYYQCVQGYRALHRGPAESVCKMTHGKTRWTQPQLICTGEMETSQFPGEEKPQASPEGRPESETSCLVTTTDFQIQTEMAATMETSIFTTEYQGSGGGG[no letters for human IgG1 Fc with changes]
B2: Construct CCC: SEQ ID NO 848: h IL2(C125S)-2x(GHHPH)-MMPscr-2x(G4S)-hIL2Ra(M25I)-GSGGGG-hu IgG1 Fc (LALA) (protein)
chain: [no letters for about 150 residues]GHHPHGHHPHGVRLGPGGGGGSGGGGSELCDDDPPEIPHATFKAMAYKEGTILNCECKRGFRRIKSGSLYMLCTGNSSHSSWDNQCQCTSSATRNTTKQVTPQPEEQKERKTTEMQSPMQPVDQASLPGHCREPPPWENEATERIYHFVVGQMVYYQCVQGYRALHRGPAESVCKMTHGKTRWTQPQLICTGEMETSQFPGEEKPQASPEGRPESETSCLVTTTDFQIQTEMAATMETSIFTTEYQGSGGGG[no letters for human IgG1 Fc with changes]
B3: Construct FFF: SEQ ID NO 851: h IL2(C125S)-VRIQRKKEKMKET-MMPscr-2x(G4S)-hIL2Ra(M25I)-GSGGGG-hu IgG1 Fc(LALA) (protein)
chain: [no letters for about 150 residues]VRIQRKKEKMKETGPLGVRGGGGGSGGGGSELCDDDPPEIPHATFKAMAYKEGTILNCECKRGFRRIKSGSLYMLCTGNSSHSSWDNQCQCTSSATRNTTKQVTPQPEEQKERKTTEMQSPMQPVDQASLPGHCREPPPWENEATERIYHFVVGQMVYYQCVQGYRALHRGPAESVCKMTHGKTRWTQPQLICTGEMETSQFPGEEKPQASPEGRPESETSCLVTTTDFQIQTEMAATMETSIFTTEYQGSGGGG[no letters for human IgG1 Fc with changes]
B4: Construct F: SEQ ID NO 803: h IL2(C125S)-2x(SG4)-MMPcs1-2x(G4S)-chimeric IL2Ra(sushi mouse)-hIgG1 Fc (protein)
chain: [no letters for about 150 residues]SGGGGSGGGGGPLGVRGGGGGSGGGGSELCLYDPPEVPNATFKALSYKNGTILNCECKRGFRRLKELVYMRCLGNSWSSNCQCTSSATRNTTKQVTPQPEEQKERKTTEMQSPMQPVDQASLPGHCREPPPWENEATERIYHFVVGQMVYYQCVQGYRALHRGPAESVCKMTHGKTRWTQPQLICTGEMETSQFPGEEKPQASPEGRPESETSCLVTTTDFQIQTEMAATMETSIFTTEYQ[no letters for human IgG1 Fc]
B5: Construct I: SEQ ID NO 837: h IL2(C125S)-2x(SG4)-MMPcs1-2x(G4S)-hIL2Ra([…]; M25I)-hIgG1 Fc-6xHis (protein)
chain: [no letters for about 150 residues]SGGGGSGGGGGPLGVRGGGGGSGGGGSELCDDDPPEIPHATFKAMAYKEGTILNCECKRGFRRIKSGSLYMLCTGNSSHSSWDNQCQCTSSATRNTTKQVTPQPEEQKERKTTEMQSPMQPVDQASLPGHCREPPPWENEATERIYHFVVGQMVYYQCVQGYRALHRGPAESVCKMTHGKTRWTQPQLICTGEMETSQFPGEEKPQASPEGRPESETSCLVTTTDFQIQTEMAATMETSIFTTEYQ[no letters for human IgG1 Fc and a few adjoining residues]
B6: Construct L: SEQ ID NO 840: h IL2(C125S)-2x(SG4)-MMPcs1-2x(G4S)-hIL2Ra([…]; SGSL39-42ELV)-hIgG1 Fc-6xHis (protein)
chain: [no letters for about 150 residues]SGGGGSGGGGGPLGVRGGGGGSGGGGSELCDDDPPEIPHATFKAMAYKEGTMLNCECKRGFRRIKELVYMLCTGNSSHSSWDNQCQCTSSATRNTTKQVTPQPEEQKERKTTEMQSPMQPVDQASLPGHCREPPPWENEATERIYHFVVGQMVYYQCVQGYRALHRGPAESVCKMTHGKTRWTQPQLICTGEMETSQFPGEEKPQASPEGRPESETSCLVTTTDFQIQTEMAATMETSIFTTEYQ[no letters for human IgG1 Fc and a few adjoining residues]
modifications: 6xHis tag
notes: SGSL39-42ELV)-hIgG1 Fc-6xHis
B7: Construct K: SEQ ID NO 839: h IL2(C125S)-2x(SG4)-MMPcs1-2x(G4S)-hIL2Ra([…]; DD4-5LY)-hIgG1 Fc-6xHis (protein)
chain: [no letters for about 150 residues]SGGGGSGGGGGPLGVRGGGGGSGGGGSELCLYDPPEIPHATFKAMAYKEGTMLNCECKRGFRRIKSGSLYMLCTGNSSHSSWDNQCQCTSSATRNTTKQVTPQPEEQKERKTTEMQSPMQPVDQASLPGHCREPPPWENEATERIYHFVVGQMVYYQCVQGYRALHRGPAESVCKMTHGKTRWTQPQLICTGEMETSQFPGEEKPQASPEGRPESETSCLVTTTDFQIQTEMAATMETSIFTTEYQ[no letters for human IgG1 Fc and a few adjoining residues]
modifications: 6xHis tag
notes: DD4-5LY)-hIgG1 Fc-6xHis
B8: Construct J: SEQ ID NO 838: h IL2(C125S)-2x(SG4)-MMPcs1-2x(G4S)-hIL2Ra([…]; L42V)-hIgG1 Fc-6xHis (protein)
chain: [no letters for about 150 residues]SGGGGSGGGGGPLGVRGGGGGSGGGGSELCDDDPPEIPHATFKAMAYKEGTMLNCECKRGFRRIKSGSVYMLCTGNSSHSSWDNQCQCTSSATRNTTKQVTPQPEEQKERKTTEMQSPMQPVDQASLPGHCREPPPWENEATERIYHFVVGQMVYYQCVQGYRALHRGPAESVCKMTHGKTRWTQPQLICTGEMETSQFPGEEKPQASPEGRPESETSCLVTTTDFQIQTEMAATMETSIFTTEYQ[no letters for human IgG1 Fc and a few adjoining residues]
modifications: 6xHis tag
notes: L42V)-hIgG1 Fc-6xHis
B9: Construct AAA: SEQ ID NO 846: h IL2(C125S)-2x(SG4)-MMPcs1-2x(G4S)-hIL2Ra(M25I)-GSGGGG-hu IgG1 Fc (LALA) (protein)
chain: [no letters for about 150 residues]SGGGGSGGGGGPLGVRGGGGGSGGGGSELCDDDPPEIPHATFKAMAYKEGTILNCECKRGFRRIKSGSLYMLCTGNSSHSSWDNQCQCTSSATRNTTKQVTPQPEEQKERKTTEMQSPMQPVDQASLPGHCREPPPWENEATERIYHFVVGQMVYYQCVQGYRALHRGPAESVCKMTHGKTRWTQPQLICTGEMETSQFPGEEKPQASPEGRPESETSCLVTTTDFQIQTEMAATMETSIFTTEYQGSGGGG[no letters for human IgG1 Fc with changes]
B10: Construct DDD: SEQ ID NO 849: h IL2(C125S)-2x(GHHPH)-MMPcs1-2x(G4S)-hIL2Ra(M25I)-GSGGGG-hu IgG1 Fc (LALA) (protein)
chain: [no letters for about 150 residues]GHHPHGHHPHGPLGVRGGGGGSGGGGSELCDDDPPEIPHATFKAMAYKEGTILNCECKRGFRRIKSGSLYMLCTGNSSHSSWDNQCQCTSSATRNTTKQVTPQPEEQKERKTTEMQSPMQPVDQASLPGHCREPPPWENEATERIYHFVVGQMVYYQCVQGYRALHRGPAESVCKMTHGKTRWTQPQLICTGEMETSQFPGEEKPQASPEGRPESETSCLVTTTDFQIQTEMAATMETSIFTTEYQGSGGGG[no letters for human IgG1 Fc with changes]
B11: Construct EEE (protein)
chain: [no letters for about 150 residues]VRIQRKKEKMKETGPLGVRGGGGGSGGGGSELCDDDPPEIPHATFKAMAYKEGTILNCECKRGFRRIKSGSLYMLCTGNSSHSSWDNQCQCTSSATRNTTKQVTPQPEEQKERKTTEMQSPMQPVDQASLPGHCREPPPWENEATERIYHFVVGQMVYYQCVQGYRALHRGPAESVCKMTHGKTRWTQPQLICTGEMETSQFPGEEKPQASPEGRPESETSCLVTTTDFQIQTEMAATMETSIFTTEYQGSGGGG[no letters for human IgG1 Fc with changes]

biological target: T1, MMP9 (Mus musculus, UniProt P41245); test: Cleavage of fusion protein by MMP9 protease (SDS-PAGE / Western blot); format: biochemical; conditions: 18 hours / overnight (18-22 hr) at 37 C
T1 construct: purchased R&D Systems
T1 sequence (P41245 108-730): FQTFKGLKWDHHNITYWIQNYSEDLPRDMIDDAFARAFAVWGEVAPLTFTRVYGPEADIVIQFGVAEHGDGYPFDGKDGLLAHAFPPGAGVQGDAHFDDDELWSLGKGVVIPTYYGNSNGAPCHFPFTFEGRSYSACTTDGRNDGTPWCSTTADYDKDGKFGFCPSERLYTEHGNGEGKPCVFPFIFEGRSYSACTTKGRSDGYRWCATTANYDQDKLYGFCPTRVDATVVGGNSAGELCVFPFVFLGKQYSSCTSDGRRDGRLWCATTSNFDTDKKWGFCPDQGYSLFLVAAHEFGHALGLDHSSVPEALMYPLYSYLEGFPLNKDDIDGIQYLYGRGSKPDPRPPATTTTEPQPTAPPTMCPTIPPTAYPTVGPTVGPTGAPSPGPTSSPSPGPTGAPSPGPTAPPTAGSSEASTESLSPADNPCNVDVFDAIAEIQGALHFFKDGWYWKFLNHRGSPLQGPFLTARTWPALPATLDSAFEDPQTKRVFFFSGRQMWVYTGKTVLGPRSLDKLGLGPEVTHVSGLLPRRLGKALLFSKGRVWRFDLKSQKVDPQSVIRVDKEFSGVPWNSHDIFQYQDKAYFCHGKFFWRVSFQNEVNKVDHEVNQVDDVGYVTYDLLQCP
Protocol: Recombinant MMP9 and/or MMP2 (R&D Systems) was first activated with p-aminophenylmercuric acetate and this activated protease or equivalent amount of activating solution without the protease was used to digest or mock digest the fusion protein for 1 hr, 2 hr, 4 hr and overnight (18-22 hr) at 37 C. Cleavage assays are set up in TCNB buffer: 50 mM Tris, 10 mM CaCl2), 150 mM NaCl, 0.05% Brij-35 (w/v), pH 7.5. Digested protein was aliquoted and stored at −80° C. prior to testing. Aliquots of digests were subsequently analyzed by SDS-PAGE followed by Western blotting to evaluate the extent of cleavage. Digests were also assessed in functional assays such as CTLL-2 proliferation and HEK-Blue Interleukin reporter assays. As shown in FIGS. 2A-E, essentially complete cleavage by MMP9 protease of the fusion proteins with functional site is seen after overnight incubation. In contrast, proteins containing a scrambled MMP cleavage site are not cut (FIG. 2E).
Untreated and digested fusion proteins were evaluated for cleavage products by Western blot. The following monoclonal antibodies were used: rat anti-mouse IL-2 antibody (JES6-1A12; ThermoFisher), goat anti-mouse IL-2 polyclonal antibody (AF-402-NA; R&D systems), mouse anti-6xHis monoclonal antibody (MA1-21315, ThermoFisher), Anti-mIgG Fc HRP conjugated (ThermoFisher cat #A16084), and Anti-human IL2 antibody (Invitrogen, cat #MA5-17097, mouse IgG1). Detection was performed using either a goat anti-rat HRP-conjugated antibody, Donkey Anti-goat HRP-conjugated antibody or Goat Anti-mouse HIRP conjugated (Jackson Immuno Research, West Grove, PA) and developed using the SuperSignal West Femto Maximum sensitivity detection reagent (ThermoFisher) following the manufacturer's recommendations.

For B1, the “extent of cleavage by MMP9” value was “did not show substantial cleavage”.
With B2 the “extent of cleavage by MMP9” value was “did not show substantial cleavage”.
In the case of B3, the “extent of cleavage by MMP9” value is reported as “did not show substantial cleavage”.

test system: HEK-Blue™ IL-2 cells; test: HEK-Blue IL2 reporter assay (SEAP, OD630); format: cell-based; conditions: Table 5B; cleaved with MMP9; HEK BLUE IL2; read-out: +MMP EC50
Protocol: Recombinant MMP9 and/or MMP2 (R&D Systems) was first activated with p-aminophenylmercuric acetate and this activated protease or equivalent amount of activating solution without the protease was used to digest or mock digest the fusion protein for 1 hr, 2 hr, 4 hr and overnight (18-22 hr) at 37 C. Cleavage assays are set up in TCNB buffer: 50 mM Tris, 10 mM CaCl2), 150 mM NaCl, 0.05% Brij-35 (w/v), pH 7.5. Digested protein was aliquoted and stored at −80° C. prior to testing. Aliquots of digests were subsequently analyzed by SDS-PAGE followed by Western blotting to evaluate the extent of cleavage. Digests were also assessed in functional assays such as CTLL-2 proliferation and HEK-Blue Interleukin reporter assays. As shown in FIGS. 2A-E, essentially complete cleavage by MMP9 protease of the fusion proteins with functional site is seen after overnight incubation. In contrast, proteins containing a scrambled MMP cleavage site are not cut (FIG. 2E). HEK-Blue™ IL-2 cells are specifically designed to monitor the activation of the JAK-STAT pathway induced by IL-2. Indeed, stimulation with human or murine IL-2 triggers the JAK/STAT5 pathway and induces secreted embryonic alkaline phosphatase (SEAP) production. SEAP can be readily monitored when using QUANTI-Blue™, a SEAP detection medium. These cells respond to human and murine IL-2. For the HEK Blue assay, untreated and digested samples are titrated and added to 50 000 HEK Blue cells per well in 200 ul medium in a 96-well plate and incubated at 37C in 5% CO2 for 20-24 hr. The following day, levels of SEAP are measured by adding 20 uL of cell supernatant to QuantiBlue reagent, followed by 1-3 h incubation at 37C and reading absorbance at 630 nm. FIGS. 3C-J, 3Q-Y and Table 5B-5C show results obtained from IL2 fusion proteins tested in HEK Blue IL2 assay.

In order of falling EC50:
1. B4  0.0078 nM
2. B5  0.0074 nM
3. B6  0.0061 nM
4. B8  0.0059 nM
5. B7  0.0055 nM

same assay, conditions: Table 5B; uncleaved; HEK BLUE IL2; read-out: −MMP EC50

In order of falling EC50:
1. B5  0.317 nM
2. B4  0.174 nM
3. B8  0.126 nM
4. B7  0.0933 nM
5. B6  0.0453 nM

same assay, conditions: Table 5C; cleaved with MMP9; read-out: +MMP EC50

In order of rising EC50:
1. B11  0.0069 nM
2. B9  0.0089 nM
3. B10  0.0094 nM

same assay, conditions: Table 5C; uncleaved; read-out: −MMP EC50

In order of falling EC50:
1. B9  0.23 nM
2. B10  0.181 nM
3. B11  0.149 nM

same assay, conditions: −MMP vs +MMP

In order of falling “FOLD DIFFERENCE EC50 (HEK BLUE IL2)” value:
1. B5  43
2. B4  22
3. B8  21
4. B7  17
5. B6  7.3

From patent US20240043489A1, “Cytokine Prodrugs Comprising a Cleavable Linker” (Trutino Biosciences Inc., priority 2020, published 2024)
